Experimental findings from the RNAGym collection of RNA variant scans (doi:10.1101/gad.245936.114) are described below.

To fix the notation:
B1: tRNA (parent)
chain: CUCUCGGUAGCCAAGUUGGUUUAAGGCGCAAGACUUUAAUUUAUCACUACGAAAUCUUGAGAUCGGGCGUUCGACUCGCCCCCGGGAGAUUUUUUCCUCGAGCAA

This sample is rich in variants without activity.

Variants of B1 are the subject of this data set. The data set can be described thus: nonsense suppression (GFP-seq) (ratio to wild type); higher = more function; SUP4oc tRNA, yeast GFP reporter sort-seq. Put shortly: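 Nonsense suppression (GFPSEQ) is the median GFP/RFP ratio of each sorting bin, weighted by the variant's estimated share of cells in that bin and expressed relative to the unmutated parent tRNA. Yeast strains carried genome-integrated variants of an ochre-suppressor tRNA from a library with ~3% random mutations, plus a galactose-driven GFP ochre reporter and RFP, and were grown in raffinose/galactose medium containing 80 mg/L adenine. Cells were sorted into GFP/RFP bins, each bin was Illumina-sequenced (phred ≥30), and variants were kept only with ≥100 reads and ≥30 cells.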
CUCUCGGUAGCCAAGUUGGUUUAAGGUGCAAGACUUUAAUUUAUCACUACGAAAUCUUGAGAUCGGGCGUUGGACCCGCCCCCGGGAGAUUUUUUCCUCGAGCAA [C27U C72G U76C]: the nonsense suppression was ≤ 0.026.
In the case of CUCUCGGUAGCCAAGUUGGUUUAAAGCGCGAGACUUUAAUUUAUCACUACGAAAUCUUGAGAUCGUGCGUUCGACUCGCCCCCGGGAGAUUUUUUCCUCGAGCAA [G25A A30G G66U] it was ≤ 0.026; in that of CUCUCGGUAGCCAAGUUGGUCUAAGGCGCAAGACUUUAAUUUAUCACUACGAAAUCUUGAGAUCGGGCGUACGACUCGCCCCCGGGAGAUUUUUUCCUCGAGCAA [U21C U71A], ≤ 0.026; in that of CUUUCGGUAGCCAAGUUGGUUUAAGGCGCAAGACUUUAAUUUAUCACUACGAAAUCUUGACAUCGGGCGUUCGCCUCGCCCCCGGGAGAUUUUUUCCUCGAGCAA [C3U G61C A74C], ≤ 0.026.
With CUCUCGGUAGCCAAGUUGGUUUAAGGCGCAACACUUUAAUUUAUCACUACGAAAUCAUGAGAUCGGGCGUUCGACUCGCCCCCGGGAGAUUUUUUCCUCGAGCAA [G32C U57A], the nonsense suppression was ≤ 0.026.
For AUCUCGGUAGCCAAGUUGGUUUAAGGCGCAAGACUUUAAUUUAUCACUACGAAAUCUUGAGCUCGGGCGUUCGACUCGCCCCCGGGAGAUUUUUUCCUCGAGCAA [C1A A62C], the nonsense suppression is ≤ 0.026.
In the case of UUAUCGGAAGCCAAGUCGGUUUAAGGCGCAAGACUUUAAUUUAUCACUACGAAAUCUUGAGAUCGGGCGUUCGACUCGCCCCCGGGAGAUUUUUUCCUCGAGCAA [C1U C3A U8A U17C], the nonsense suppression is ≤ 0.026.
For the variant CACUCGGUAGCCCAGUUGGUUUAAGGCGCAAGACUUUAAUUUAUCACUACGAAAUCUUGAGAACGGGCGUUCGACUCGCCCCCGGGAGAUUUUUUCCUCGAGCAA [U2A A13C U63A], the nonsense suppression is ≤ 0.026.
The figure for CUCUCGGUAGCCAAGUUGGUUUAAGGCGCAAGAUUUUAAUUUAUCACUACGAAAUCUUGAGAUCGGCCGUUCGACUCGCCCCCGGGAGAUUUUUUCCUCGAGCAA [C34U G67C] is ≤ 0.026; for CUCUCGGUAGCCAAGUUGCUUUAUGGCGCAAGACUUUAAUUUAUCACUACGAAAUCUUGAGAUCGGGCGUUCGCCUCGCCCCCGGGAGAUUUUUUCCUCGAGCAA [G19C A24U A74C] it is ≤ 0.026.
For CUCUCGGUAGCAAAGUUGGUUUAAUGCGCAAGACUUUAAUUUAUCACUACGAAAUCUUGAGAUCGGGCGUUCGACUCGCCCCCGGGAAAUUUUUUCCUCGAGCAA [C12A G25U G88A], the nonsense suppression was ≤ 0.026.
The figure for CUCUCGGUAGCCAAGUCGGUUUAAGGCGCAAGACUUUAAUUUAUCACUACGAAAUCUUGAGAUCGGGCGGUCGACUCGCCCCCGGGAGAUUUUUUCCUCGAGCAA [U17C U70G] is ≤ 0.026; for CCCUCGGUAGCCAAGUUGGUUUAAGGCGCAAGACCUUAAUUUAUCACUACGAAAUCUGGAGAUCGGGCGUUCGACUCGCCCCCGGGAGAUUUUUUCCUCGAGCAA [U2C U35C U58G] it is ≤ 0.026; for CCCUCGGUAGCGAAGUUGGUUUAAGGCGCAAGACUUUAAUUUAUCACUACGAAAUCUUGAGAUCGGGCGUUCGACUCGCCCCCGGGAGAUUUUUUCCUCGAGCAA [U2C C12G] it is ≤ 0.026.
The figure for CGCUCGGUAGCCAAGUUGGUUAAAGGCGCAAGACUUUAAUUUAUCACUACGAAAUCUUGAGAUCGGGCGUUCGACUCGCCCCCGGGAGAUUUUUUCCUCGAGCAA [U2G U22A] is ≤ 0.026; for CUUACGGUAGCCAAGUUGGUUUAACGCGCAAGACUUUAAUUUAUCACUACGAAAUCUUGAGAUCGGGCGUUCGACUCGCCCCCGGGAGAUUUUUUCCUCGAGCAA [C3U U4A G25C] it is ≤ 0.026.
Turning to CUCUCGGUAGGCAAGUUGGUUUAAGGCCCGAGACUUUAAUUUAUCACUACGAAAUCUUGAGAUCGGGCGUUCGACUCGCCCCCGGGAGAUUUUUUCCUCGAGCAA [C11G G28C A30G], the nonsense suppression was ≤ 0.026.
For the variant AUCUCGGUUGCCAAGUUGGUUUAAGGCGCUAGACUUUAAUUUAUCACUACGAAAUCUCGUGAUCGGGCGUUAGACUCGCCCCCGGGAGAUUUUUUCCUCGAGCAA [C1A A9U A30U U58C A60U C72A], the nonsense suppression was ≤ 0.026.
In the case of CUCUCGGUAGCCAAGUUGGUUUACGGCGCAAGACUUUAAUUUAUCACUACGAAAUCUUGAGAUCGGGCGUUUGACUCGCCCCCAGGAGAUUUUUUCCUCGAGCAA [A24C C72U G84A] it was ≤ 0.026; in that of CUCUCGGUAGCCAAGUUGGUUUCAGGCGCAAGACUUUAAUUUAUCACUACGAAAUCUAGAGAUCGGGCGUUCGACUCGCCCCCGGGAGAUUUUUUCCUCGAGCAA [A23C U58A], ≤ 0.026.
As for CUCUCGGUAGACAAGUUGGUUUAAGGCGCAAGACUUUAAUUUAUCACUACGAAAUCUUGAGAUCGGGCGUUCGACUCGCCCCCGGGAGAUUUUUUCCUCGAGCAA [C11A], the nonsense suppression is ≤ 0.026.
In the case of CUCUCGGUAGCCAAGUUGGUUUAAGGCGCAAGACUUUAAUUUAUCACUACGAAAAUUUGAGAUCGGGCGUUCGACUCGCCCCCGGGAGAUUUUUUCCUCGAGCAA [U55A C56U] it was ≤ 0.026.
Turning to CUCUCGGUAGCCAAGUUGGUUUAAGGCGCAAGACUUUAAUUUAUCACUACGAAGUCUUGAGAUCGGGCGUUCGACUCGCCCCCGGGAGGUUUUUUCCUCGAGCAA [A54G A89G], the nonsense suppression is ≤ 0.026.
The figure for CUCUCGGUAGCCAAGUUGGUUUCAGGCGCAAGACUUUAAUUUAUCACUACGAAAUCUUGAGAUCGGUCGUUCGACUCGCCCCCGGGAGAUUUUUUCCUCGAGCAA [A23C G67U] is ≤ 0.026.
For the variant CUCUCGGUAGCCAAGUUGGGUUAAGGCGCAAUAUUUUAAUUUAUCACUACGAAACAUUGAGAUCGGGCGUUCGACUCGCCCCCGGGAGAUUUUUUCCUCGAGCAA [U20G G32U C34U U55C C56A], the nonsense suppression was ≤ 0.026.
In the case of CUCUCGGUAGCCAAGUUGGGUUAAGGCGCAAGAUUUUAAUUUAUCACUACGAAAUCUUGAGAUCGGGCGUUCGACUCGCCCCCUGGAGAUUUUUUCCUCGAGCAA [U20G C34U G84U] it was ≤ 0.026; in that of AUCUCAGUAGCCAAGUCGGUUUAAGGCGCAAGACUUUAAUUUAUCACUACGAAAUCUUGAGAUCGGGCGUUCGACUCGCCCCCGGGAGAUUUUUUCCUCGAGCAA [C1A G6A U17C], ≤ 0.026.
